For the first assay, the system named is P. falciparum strain 3D7.
Settings: not given
For `CC(=O)N(C/C=C/P(=O)([O-])O)OCc1ccc(C(C)C)cc1.[Na+]` [Compound 16e, Sodium hydrogen [(1E)-3-(N-{[4-(propan-2-yl)phenyl]methoxy}acetamido)prop-1-en-1-yl]phosphonate], the “rescue of parasite growth by exogenous IPP” value is given as “restored by IPP supplementation”.
The same measure, in the same setting: the same measure for `CC(C)(C)C(=O)OCOP(=O)(/C=C/CN(O)C=O)OCOC(=O)C(C)(C)C` [Compound 18a, [({[(2,2-dimethylpropanoyl)oxy]methoxy}[(1E)-3-(N-hydroxyformamido)prop-1-en-1-yl]phosphoryl)oxy]methyl 2,2-dimethylpropanoate]: “effectively rescues growth”; for `O=C(c1ccccc1)N(O)C/C=C/P(=O)([O-])O.[Na+]` [Compound 32a, Sodium hydrogen [(1E)-3-(N-hydroxy-1-phenylformamido)prop-1-en-1-yl]phosphonate]: “rescues growth”; for `CC(C)(C)C(=O)OCOP(=O)(/C=C/CN(O)C(=O)c1ccccc1)OCOC(=O)C(C)(C)C` [Compound 33a, [({[(2,2-dimethylpropanoyl)oxy]methoxy}[(1E)-3-(N-hydroxy-1-phenylformamido)prop-1-en-1-yl]phosphoryl)oxy]methyl 2,2-dimethylpropanoate]: “rescues growth”.
On the same count and under the same terms, in the case of `O=CN(O)CCCP(=O)(O)O` [Fosmidomycin, reference compound] it was “restoration effect”.

The assay is the same for the next values; noted with them: strain 3D7, growth by PicoGreen after 72 h.
As for `O=CN(O)C/C=C/P(=O)([O-])O.[Na+]` [Compound 12a, Sodium hydrogen [(1E)-3-(N-hydroxyformamido)prop-1-en-1-yl]phosphonate], the “rescue of parasite growth by exogenous IPP” value is reported as “effectively rescues growth”.

Source of the values: US11098072B2, “Alkenyl and beta-substituted phosphonates as antimicrobial agents” (The George Washington University, priority 2017, dated 2021).
